Test results as given in PubChem BioAssay AID2685 (National Center for Advancing Translational Sciences (NCATS), 2010).
Out of some 320,000 compounds screened, about 2,100 (0.66%) were called active. Roughly 53% stayed inconclusive and do not appear here. The call rests on the fitted dose curve; in most records, active means well fitted inhibition curve with a large enough effect in the signal ratio, with a control signal flat (not every such curve was filed as active); inconclusive means small, poorly fitted or top-dose-only effect, or effect the other way, or a change in a side signal; inactive means flat fitted curve, though single readings scatter; the % refers to the signal ratio. Where a structure was tested more than once in an assay, its records may differ in their call. For part of its entries the source gives two or more results. This list holds those alone. The source may hold further records. Values that stand side by side are repeated measurements (runs, samples, wells, individuals or studies). A tag in brackets gives the origin of a value. Letters count within one entry.

assay: qHTS Assay for Lipid Storage Modulators in Drosophila S3 Cells; settings: BODIPY lipid droplet fluorescence, 18-24 h, cells fed with added oleic acid; series mostly up to 46.1 µM
Potency means the concentration at half of the fitted maximal effect.

Structure (SMILES) | Potency
O[C@@H]1CCCC[C@H]1N1CCC(c2ccccc2)CC1 | active: 2.59 µM [sample A] and inactive [sample B]
